Experimental data taken from patent US5786349A, “Method for treating chlamydia infectious diseases by rifamycin derivative” (Kaneka Corporation, priority 1995, dated 1998).
≈ marks a conversion by molar mass, not a printed value.

Tests used:
[1] = test system: Chlamydia trachomatis F/UW-6/Cx; test: In vitro test 1: inhibition of inclusion formation in HeLa 229 cells (Japan Society of Chemotherapy standard method), C. trachomatis F/UW-6/Cx; conditions: 72 h, read-out: minimum inhibitory concentration (MIC) capable of inhibiting inclusion formation
[2] = test system: Chlamydia trachomatis D/UW-3/Cx; test: In vitro test 1: inhibition of inclusion formation in HeLa 229 cells (Japan Society of Chemotherapy standard method), C. trachomatis D/UW-3/Cx; conditions: 72 h, read-out: minimum inhibitory concentration (MIC) capable of inhibiting inclusion formation

Compound	MIC [1] [ng/mL]	MIC [2] [ng/mL]
CO[C@H]1/C=C/O[C@@]2(C)Oc3c(C)c(O)c4c(O)c(c(/C=N/N5CCN(C)CC5)c(O)c4c3C2=O)NC(=O)/C(C)=C\C=C\[C@H](C)[C@H](O)[C@@H](C)[C@@H](O)[C@@H](C)[C@H](OC(C)=O)[C@@H]1C [rifampicin]	4 (≈ 4.86 nM)	4 (≈ 4.86 nM)
COC1C=COC2(C)Oc3c(C)c(O)c4c(=O)c(c5oc6cc(N7CCN(CC(C)C)CC7)cc(O)c6nc-5c4c3C2=O)NC(=O)C(C)=CC=CC(C)C(O)C(C)C(O)C(C)C(OC(C)=O)C1C (stereo not shown) [Compound 4]	0.125 (≈ 0.133 nM)	0.125 (≈ 0.133 nM)
